{
  "source": "PubChem BioAssay AID445",
  "about": "(National Center for Advancing Translational Sciences (NCATS), 2006)",
  "note": "About 40 (0.04%) of roughly 110,000 compounds were called active. Inconclusive means that the source gave no clear call. Such entries were picked first, then a sample of the others. Calls come from the whole dose curve; as a rule, active = well fitted curve in the direction sought with a large enough effect in the signal ratio (not every such curve was filed as active); inconclusive = small, poorly fitted or top-dose-only effect, or a change in a side signal; inactive = flat fitted curve, though single readings scatter; the % refers to the signal ratio. Where the call is inconclusive, the potency comes from a doubtful curve fit. Potency is the fitted concentration of half-maximal effect.",
  "data": [
    {"assay": "IkB Signaling;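 for IkBa stabilization activation: 0% = basal untreated cells and 100% = reference inhibitor full response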", "conditions": "ABC-DLBCL IkBa-CBG/CBR dual luciferase ratio (green luciferase fused to IkBa over red control in OCI-Ly3 lymphoma cells), 4 h; IkBa stabilization activation: at 57.1 µM (top of the series), scaled: untreated 0%, proteasome inhibitor 100% unless noted", "outline": "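Curves were fitted separately to fusion (green), unfused (red) and ratio luminescence, then classed by r2, magnitude and activity. Cells: OCI-Ly3, 4 h compound plus doxycycline at 37C; 10 uM MG-132 defined full response.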", "values": [
      {"smiles": "Cc1ccccc1NC(=O)C(=O)NCC1(c2ccccc2)CCCC1", "IkBa stabilization activation": "inconclusive: 2.85% [signal inhibitor]"},
      {"smiles": "O=C(Nc1nc(-c2ccc3c(c2)OCO3)cs1)C1COc2ccccc2O1", "note": "(centres undefined)", "IkBa stabilization activation": "inconclusive: 2.63% [signal inhibitor]"},
      {"smiles": "CCOc1ccc(Nc2nc(C)c(NC(=O)c3ccc(C)cc3)c(Nc3ccc(OCC)cc3)n2)cc1", "IkBa stabilization activation": "inconclusive: 10.3% [signal inhibitor]"},
      {"smiles": "COc1cc(NC(=O)CC(C)S(=O)(=O)c2ccc3c(c2)CCN3C(C)=O)cc(OC)c1OC", "note": "(centres undefined)", "IkBa stabilization activation": "inactive: 1.24%"},
      {"smiles": "Cc1nnc(SCCn2c(N3CCC(C)CC3)nc3c2c(=O)n(C)c(=O)n3C)s1", "IkBa stabilization activation": "inactive: -0.278%"},
      {"smiles": "O=C(CSc1nnc2scc(-c3ccc(Cl)cc3)n12)Nc1cccc(C(F)(F)F)c1", "IkBa stabilization activation": "inconclusive: 3.73% [signal inhibitor]"},
      {"smiles": "CCOc1ccc(N2CCCn3c2nc2c3c(=O)n(CCc3ccccc3)c(=O)n2C)cc1", "IkBa stabilization activation": "inconclusive: 9.91% [signal inhibitor]"},
      {"smiles": "CCn1c(=O)c2cc(C(=O)N3CCN(c4cccc(OC)c4)CC3)sc2c2ccccc21", "IkBa stabilization activation": "inconclusive: 0.575% [signal inhibitor]"},
      {"smiles": "COc1ccc(Cl)cc1Nc1nc2ccc(C(=O)c3ccccc3)cc2n2cnnc12", "IkBa stabilization activation": "inconclusive: -1.28% [signal inhibitor]"},
      {"smiles": "Cc1ccc(N=Cc2nc(-c3ccco3)oc2O)cc1", "IkBa stabilization activation": "inactive: 4.5%"},
      {"smiles": "CN(CC(=O)Nc1ccc(Cl)cc1F)S(=O)(=O)c1ccc2c(c1)n(C)c(=O)c(=O)n2C", "IkBa stabilization activation": "inactive: 0.178%"},
      {"smiles": "CCc1ccc(C(c2ccccc2)c2c[nH]c3ccc(C)cc23)s1", "note": "(centres undefined)", "IkBa stabilization activation": "inconclusive: 4.16% [signal inhibitor]"},
      {"smiles": "O=C(Nc1ccc(Br)cc1)C1CCCN1S(=O)(=O)c1cccs1", "note": "(centres undefined)", "IkBa stabilization activation": "inconclusive: 4.63% [signal inhibitor]"},
      {"smiles": "CN1CCc2c(sc3c2C(=O)NC(/C=C/c2ccco2)N3)C1", "note": "(centres undefined)", "IkBa stabilization activation": "inactive: -2.44%"},
      {"smiles": "CC(CCc1ccccc1)NC(=O)Cn1c(=O)nc(-c2ccccc2F)c2cc(Cl)ccc21", "note": "(centres undefined)", "IkBa stabilization activation": "inconclusive: 1.84% [signal inhibitor]"},
      {"smiles": "CCOC(=O)Cn1nnnc1C(CC)N(Cc1cccs1)Cc1cc2cc(C)ccc2[nH]c1=O", "note": "(centres undefined)", "Potency": "inconclusive: 31.6 µM [signal inhibitor, partial curve]"},
      {"smiles": "CC(C(=O)N(C1CC1)C1(C(=O)Nc2ccccc2)CCCC1)N1C(=O)c2ccccc2C1=O", "note": "(centres undefined)", "IkBa stabilization activation": "inconclusive: 1.57% [signal inhibitor]"},
      {"smiles": "CSc1ccc(CCNC(=O)c2ccc3c(c2)nc2n3CCCCC2)cc1", "IkBa stabilization activation": "inconclusive: 1.72% [signal inhibitor]"},
      {"smiles": "NC(N)=NCCCC(=O)O", "IkBa stabilization activation": "inactive: 1.37% [at 11.4 µM, scaled: untreated 0%, proteasome inhibitor 100%]"},
      {"smiles": "CCOC(=O)Cn1c(=O)n(C2CCCCC2)c2nc(-c3ccc(OCC)cc3)nc(C(N)=O)c21", "IkBa stabilization activation": "inactive: 0.627%"},
      {"smiles": "O=C(CSc1nccn1-c1ccc(Cl)cc1)Nc1cccc2ccccc12", "IkBa stabilization activation": "inconclusive: 2.36% [signal inhibitor]"},
      {"smiles": "Cc1ccc(CSc2ncc(Cl)c(C(=O)Nc3nc4ccc(C)cc4s3)n2)cc1", "IkBa stabilization activation": "inconclusive: 1.3% [signal inhibitor]"},
      {"smiles": "OC[C@@H]1O[C@@H](n2cnc3c(N[C@@H]4C[C@@H]5CC[C@H]4C5)ncnc32)[C@@H](O)[C@H]1O", "IkBa stabilization activation": "inactive: 5.36%"},
      {"smiles": "COc1ccccc1N1CCN(C(=O)CCc2ccc(S(=O)(=O)NCC(C)C)cc2)CC1", "IkBa stabilization activation": "inconclusive: -0.381% [signal inhibitor]"},
      {"smiles": "O=C(NCc1ccc(F)cc1)c1ccc(CS(=O)Cc2ccc(Cl)cc2)o1", "note": "(centres undefined)", "IkBa stabilization activation": "inconclusive: -2.33% [signal inhibitor]"},
      {"smiles": "COc1ccccc1CNS(=O)(=O)c1cc(Br)cc2c1N(C(C)=O)C(C)C2", "note": "(centres undefined)", "IkBa stabilization activation": "inconclusive: -0.339% [signal inhibitor]"},
      {"smiles": "CC(=O)N1CCc2c(sc(NC(=O)CSc3ccc(F)cc3)c2-c2nc3ccccc3s2)C1", "IkBa stabilization activation": "inconclusive: 1.01% [signal inhibitor]"},
      {"smiles": "Cc1ccc(Cn2c(CO)cnc2SCC(=O)Nc2cccc(F)c2)cc1", "IkBa stabilization activation": "inconclusive: 0.392% [signal inhibitor]"},
      {"smiles": "Cc1cc(C)cc(CC2CC(=O)N(c3ccc4c(c3)OCCO4)C2=O)c1", "note": "(centres undefined)", "IkBa stabilization activation": "inconclusive: 5.37% [signal inhibitor]"},
      {"smiles": "CCOc1ccc(S(=O)(=O)N2CCC(n3c(C)nc4cccnc43)CC2)cc1", "IkBa stabilization activation": "inactive: -1.22%"},
      {"smiles": "CCn1c(C)c(C)c2cc(C(=O)NCCc3cc(OC)ccc3OC)ccc21", "IkBa stabilization activation": "inconclusive: 1.07% [signal inhibitor]"},
      {"smiles": "CCCn1c(CN2CCCCC2C)nc2c1c(=O)n(C)c(=O)n2C", "note": "(centres undefined)", "Potency": "inconclusive: 25.1 µM [signal inhibitor, partial curve]"},
      {"smiles": "Cc1oc2ncn(CC(C)C)c(=O)c2c1C(=O)NCCCN(C)Cc1ccccc1", "IkBa stabilization activation": "inactive: -1.14%"},
      {"smiles": "Cc1oc2c(C)c3oc(=O)c(CCC(=O)N4CCCCC4)c(C)c3cc2c1C", "IkBa stabilization activation": "inactive: 1.67%"},
      {"smiles": "CC(C)(C)c1ccc(C(=O)Nc2nnc3n2CCS3)cc1", "IkBa stabilization activation": "inconclusive: 6.84% [signal activator]"},
      {"smiles": "CCOC(=O)Cn1c(=O)oc2cc(S(=O)(=O)Nc3ccccc3F)ccc21", "IkBa stabilization activation": "inconclusive: 1.1% [signal inhibitor]"},
      {"smiles": "Cc1nc(N2CCOCC2)c2cc(-c3ccccc3)sc2n1", "IkBa stabilization activation": "inactive: -1.08%"},
      {"smiles": "O=C1CC(c2ccc(Br)cc2)c2c(ccc3ccccc23)N1", "note": "(centres undefined)", "IkBa stabilization activation": "inconclusive: -6.06% [signal inhibitor]"},
      {"smiles": "COc1ccc(C(=O)N(Cc2nc(-c3ccc(C)cc3)no2)C2CCCCC2)cc1OC", "IkBa stabilization activation": "inconclusive: -0.892% [signal inhibitor]"},
      {"smiles": "Cc1cccc(C(=O)Nc2ccccc2OCc2cc(=O)n3cc(C)ccc3n2)c1", "IkBa stabilization activation": "inconclusive: 1.09% [signal inhibitor]"},
      {"smiles": "CC(=O)N1CCCc2cc(S(=O)(=O)N3CCCC(C(=O)Nc4ccc(C)c(F)c4)C3)ccc21", "note": "(centres undefined)", "IkBa stabilization activation": "inconclusive: 3.11% [signal inhibitor]"},
      {"smiles": "COC(=O)c1ccccc1NC(=O)CN1CCC(NC(=O)c2ccc(C)cc2)CC1", "IkBa stabilization activation": "inactive: 3.33%"},
      {"smiles": "CC(Oc1ccc(O)cc1)(P(=O)(O)O)P(=O)(O)O", "IkBa stabilization activation": "inactive: 0.313%"},
      {"smiles": "COc1ccc(Br)cc1CNC(=O)C1CCN(S(=O)(=O)N2CCCCC2)CC1", "IkBa stabilization activation": "inactive: 0.0485%"},
      {"smiles": "CC(=O)Nc1ccc2nc(SCCOc3ccccc3Cl)sc2c1", "IkBa stabilization activation": "inconclusive: -2.95% [signal inhibitor]"},
      {"smiles": "CCOC(=O)c1c(C)[nH]c(C)c1S(=O)(=O)N(C)CC(=O)Nc1ccc(C)c(F)c1", "IkBa stabilization activation": "inconclusive: -0.915% [signal inhibitor]"},
      {"smiles": "Nc1nc(SCc2ccc([N+](=O)[O-])cc2)c2ncn([C@@H]3O[C@@H](CO)[C@@H](O)[C@H]3O)c2n1", "IkBa stabilization activation": "inactive: -0.14%"},
      {"smiles": "O=C(c1ccc(-c2ccccc2)cc1)N1CCN(C(=O)c2ccco2)CC1", "IkBa stabilization activation": "inconclusive: 5.39% [signal inhibitor]"},
      {"smiles": "Cc1cc(C)c(NC(=O)C2CCCN(C(=O)c3cnn(-c4ccccc4)c3-n3cccc3)C2)c(C)c1", "note": "(centres undefined)", "IkBa stabilization activation": "inconclusive: 3.11% [signal inhibitor]"},
      {"smiles": "CCc1ccc(S(=O)(=O)c2cn(Cc3ccc(OC)cc3)c3cc(OC)c(OC)cc3c2=O)cc1", "IkBa stabilization activation": "inconclusive: -1.45% [signal inhibitor]"},
      {"smiles": "O=C(COc1ccc(Br)cc1)Nc1ccc(C(=O)OC2CCCCC2)cc1", "IkBa stabilization activation": "inactive: -2.03%"},
      {"smiles": "CCOc1ccc(NC(=O)Cn2c(=O)n(-c3ccccc3)c(=O)c3c4c(sc32)CCCC4)cc1", "IkBa stabilization activation": "inactive: -1.24%"},
      {"smiles": "CCc1nnc2c3ccccc3nc(N3CCN(c4cc(Cl)ccc4C)CC3)n12", "IkBa stabilization activation": "inactive: -0.777%"},
      {"smiles": "COc1ccc(NC(=O)CCc2c(C)nc3cc(-c4cccc(F)c4)nn3c2C)cc1Cl", "Potency": "inconclusive: 15.8 µM [signal inhibitor, partial curve]"},
      {"smiles": "CCOc1ccc(NC(=O)CSc2cn(CC(=O)N3CCOCC3)c3ccccc23)cc1", "IkBa stabilization activation": "inactive: -0.273%"},
      {"smiles": "Fc1cccc(Cl)c1CSc1nnc(COc2cccc3cccnc23)o1", "IkBa stabilization activation": "inactive: 8.44%"},
      {"smiles": "Cn1cc(-c2nc3ccccc3[nH]2)c2ccccc21", "IkBa stabilization activation": "inconclusive: 5.48% [signal inhibitor]"},
      {"smiles": "CCOc1ccc(NS(=O)(=O)c2ccc(SC)cc2)cc1", "IkBa stabilization activation": "inconclusive: 1.52% [signal inhibitor]"},
      {"smiles": "COc1ccccc1-c1nc(N(C)Cc2ccco2)c2ccccc2n1", "IkBa stabilization activation": "inactive: 2.6% [at 11.4 µM, scaled: untreated 0%, proteasome inhibitor 100%]"},
      {"smiles": "CCN(c1cc(C)cc(C)c1)S(=O)(=O)c1nnc(NC(=O)c2ccccc2C)s1", "IkBa stabilization activation": "inconclusive: -1.26% [signal inhibitor]"},
      {"smiles": "CCn1c(C)nc2cc(C(=O)OC(C(F)(F)C(F)F)C(F)(F)C(F)F)ccc21", "IkBa stabilization activation": "inconclusive: 0.494% [signal inhibitor]"},
      {"smiles": "CC(=O)Nc1ccc(S(=O)(=O)Nc2nc3ccccc3nc2Sc2nncn2C)cc1", "Potency": "inconclusive: 0.794 µM [signal inhibitor, full curve]"},
      {"smiles": "COc1ccc(Cl)cc1-c1nc(-c2ccncc2)no1", "IkBa stabilization activation": "inactive: -4.46%"},
      {"smiles": "CCc1cccc(C)c1NC(=O)c1cc(S(=O)(=O)N2CCN(c3ccccc3)CC2)ccc1F", "IkBa stabilization activation": "inconclusive: -0.938% [signal inhibitor]"},
      {"smiles": "CCOC(=O)c1cc2c(=O)n3ccccc3nc2n(C(C)C)c1=NC(=O)c1c(-c2c(F)cccc2Cl)noc1C", "IkBa stabilization activation": "inactive: -2.01%"},
      {"smiles": "Cc1cccc(CCNC(=O)CCc2c(C)nc3c(c(C)nn3-c3ccccc3)c2C)c1", "IkBa stabilization activation": "inconclusive: -0.177% [signal inhibitor]"},
      {"smiles": "O=C1CCN(Cc2nnnn2CC2CCCO2)c2ccccc2N1", "note": "(centres undefined)", "IkBa stabilization activation": "inconclusive: 14.6% [signal inhibitor]"},
      {"smiles": "CN(C)c1ccc(C(=O)NCc2ccc3c(c2)CCN3C(=O)c2ccc(Cl)cc2)cc1", "IkBa stabilization activation": "inconclusive: 0.382% [signal inhibitor]"},
      {"smiles": "CN1C(=O)c2ccccc2Sc2ccc(NC(=O)N3CCN(c4cccc(Cl)c4)CC3)cc21", "IkBa stabilization activation": "inconclusive: -2.27% [signal inhibitor]"}
    ]}
  ]
}
